Reference: PubChem BioAssay AID624418 (National Center for Advancing Translational Sciences (NCATS), 2012)
Hit rate of the full screen: of about 410,000 compounds, about 530 (0.13%) were called active. The shares of active, inactive and inconclusive entries below differ from those in the screen. Calls follow the shape of the dose curve; as a rule, active = well fitted inhibition curve with a large enough effect; inconclusive = small, poorly fitted or top-dose-only effect, or another doubt; inactive = no such curve, though single readings can be large or run the other way. Potencies beside an inconclusive call are fits to weak or partial responses and may not hold up.

Assay: qHTS of GLP-1 Receptor Inverse Agonists: Cytotox Screen
Conditions: HEK293 cAMP-luciferase reporter cells, luminescence, 24 h; series mostly up to 38.3 µM
Summary of the method: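 MLSMR compounds, 24 hr on cells at 37 deg C/5% CO2; luminescence after luciferase reagent (12 min RT). Inhibition counted as the undesired cytotoxic outcome.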
Potency is read from the fitted curve at half-maximal effect.

Row | Compound | Potency
1 | Cc1csc(NC(=S)NC(=O)c2ccccc2)n1 | inconclusive: 5.01 µM [inhibitor, full curve, poor fit]
2 | N=c1c(S(=O)(=O)c2ccc(Br)cc2)cc2c(=O)n3ccccc3nc2n1C1CCCCC1 | inactive
3 | Cc1ccc(C(=O)N/C(=C\c2ccc(-c3cccc([N+](=O)[O-])c3)o2)C(=O)NCCCN2CCOCC2)cc1 | inconclusive: 28.2 µM [inhibitor, single point]
4 | Cc1ccc(CNC(=O)c2ccccc2N)cc1 | inactive
5 | Cc1ccc(Nc2c([N+](=O)[O-])c(=O)n(C)c3ccccc23)cc1C | inconclusive: 10 µM [inhibitor, partial curve]
6 | COc1nn(-c2ccccc2)c(=O)c(Cl)c1Cl | inconclusive: 3.16 µM [inhibitor, single point]
7 | C=CCc1ccc(OCC(O)CN2CCN(Cc3ccc(Cl)cc3)CC2)c(OC)c1 (stereo unspecified) | inconclusive: 28.2 µM [inhibitor, single point]
8 | O=c1[nH]c2ccccc2n1CCCN1CCCCC1 | inactive
9 | O=C1NCC(Nc2ccc(Br)cc2)C(=O)N1 (stereo unspecified) | inconclusive: 11.2 µM [inhibitor, partial curve, poor fit]
10 | COc1cc(NC(=O)N2CCC(CN3CCCCCC3)CC2)cc(OC)c1OC | inactive
11 | Nc1c(S(=O)(=O)c2cccs2)c2nc3ccccc3nc2n1Cc1ccc2c(c1)OCO2 | inconclusive: 8.91 µM [inhibitor, partial curve, poor fit]
12 | C/C(=N\OCC(=O)N/N=C/c1ccc(C)cc1O)c1cccs1 | inconclusive: 28.2 µM [inhibitor, single point]
13 | O=C(COC(=O)c1ccc(F)c([N+](=O)[O-])c1)NC(=O)NCc1ccccc1 | inconclusive: 28.2 µM [inhibitor, single point]
14 | O=C(C1=C[C@@H](C2CC2)C[C@@H](OCCCCO)O1)N1CCOCC1 | inconclusive: 10 µM [inhibitor, single point]
15 | O=C(OCn1ncc(Cl)c(Cl)c1=O)c1cccc(C(F)(F)F)c1 | inconclusive: 12.6 µM [inhibitor, partial curve, poor fit]
16 | CN(C)c1c([N+](=O)[O-])cc2[nH]c(=O)[nH]c2c1[N+](=O)[O-] | inconclusive: 7.08 µM [inhibitor, partial curve, poor fit]
17 | CCOC(=O)c1c(C)[nH]c(C(=O)N/N=C\c2ccccc2O)c1C | inconclusive: 2 µM [inhibitor, partial curve, poor fit]
18 | CS(=O)(=O)N1CCC(C(=O)Nc2ccc(C(N)=O)cc2)CC1 | inconclusive: 2.82 µM [inhibitor, full curve]
19 | O=C(NCCc1ccccc1)c1ccc(Cn2c(SCc3ccccc3)nc3cccnc32)cc1 | inactive
20 | CC(C)c1ccccc1NC(=S)N1CCN(Cc2ccc3c(c2)OCO3)CC1 | inactive
21 | COc1ccc(CNC(C)(C)C)cc1Cl | inconclusive: 11.2 µM [inhibitor, single point]
22 | C(=N\Nc1nc2ccccc2[nH]1)/c1ccc2ncccc2c1 | inconclusive: 1.26 µM [inhibitor, full curve, poor fit]
23 | O=C(C1CCCN1S(=O)(=O)c1cccc2cccnc12)N1CCN(c2ccccc2)CC1 (stereo unspecified) | inconclusive: 1 µM [inhibitor, full curve, poor fit]

Row | Compound | Potency
24 | O=[N+]([O-])c1ccc(N/N=C/c2ccccc2)c(F)c1 | inactive
25 | Nc1ccc2nc(N)sc2c1 | inconclusive: 12.6 µM [inhibitor, single point]
26 | Cc1c(Cl)cccc1NC(=S)NCc1ccc(F)cc1 | inconclusive: 28.2 µM [inhibitor, single point]
27 | CCOC(=O)c1sc(=S)n(C)c1NC(=O)c1ccc(C(C)(C)C)cc1 | inconclusive: 12.6 µM [inhibitor, single point]
28 | COc1cccc(Oc2cn[nH]c2-c2ccc(OC)cc2O)c1 | inactive
29 | O=C(O)c1ccccc1SC1CC(=O)N(c2cccc3ccccc23)C1=O (stereo unspecified) | inactive
30 | O=C(C(=Cc1ccc(F)cc1)c1ccccc1)c1ccc(O)cc1 | inconclusive: 11.2 µM [inhibitor, single point]
31 | Cc1ccc(Nc2ncc(C(=O)Nc3ccc(F)cc3F)c3ccccc23)cc1Cl | inactive
32 | COc1ccc(C(=O)/C=C2/C(=O)Nc3ccccc32)cc1OC | inactive
33 | COc1cccc(/C=C/C2=CC(C)(C)NC(=S)N2)c1 | inconclusive: 12.6 µM [inhibitor, single point]
34 | COc1ccc(/C=C/C(=O)Nc2ccc3nc4c(c(Nc5ccc(OC)c(OC)c5)c3c2)CCCC4)cc1 | active: 4.47 µM
35 | Cc1ccc2onc(CNC(=O)NCc3ccccc3)c2c1 | inactive
36 | CC(C)=N/N=C1\NC(=O)C(C)S1 (stereo unspecified) | inactive
37 | COc1ccc(CNCCC(c2ccc(OC(C)C)cc2)C(C)C)cc1OC (stereo unspecified) | inconclusive: 28.2 µM [inhibitor, single point]
38 | Cc1ccc(C(=O)Oc2cc(C)n(C)c(=O)c2)cc1 | inactive
39 | CC1(C)CC(=O)C2=C(C1)Nc1ccccc1NC2c1cc(Cl)ccc1O (stereo unspecified) | inconclusive: 22.4 µM [inhibitor, single point]
40 | COc1cccc(NC(=O)CSc2nc3c(sc4ccccc43)c(=O)n2CCCN2CCCC2)c1 | inconclusive: 22.4 µM [inhibitor, single point]
41 | CCOC(=O)C1=C(C)NC2=C(C(=O)CCC2)C1c1ccc(O)c(OCC)c1 (stereo unspecified) | inconclusive: 12.6 µM [inhibitor, partial curve, poor fit]
42 | Cc1ccc2nc(NC(=O)c3ccc4c(c3)OCO4)sc2c1 | inactive
43 | CC(/C=N/Nc1nc(C)cc(C)n1)=C\c1ccc(C(C)C)cc1 | inconclusive: 28.2 µM [inhibitor, single point]
44 | CCOc1ccc2nc(N3C(=O)/C(=C/c4ccccc4)NC3=S)sc2c1 | inconclusive: 28.2 µM [inhibitor, single point]
45 | O=C(NC(=S)N1CCOCC1)c1ccc(F)cc1 | inconclusive: 3.55 µM [inhibitor, partial curve]
46 | Cc1ccc(C(=O)NC(=S)N2CCN(C)CC2)cc1Br | inconclusive: 7.94 µM [inhibitor, partial curve, poor fit]
